In PMC12820563, “FoxP3 forms a head-to-head dimer in vivo and stabilizes its multimerization on adjacent microsatellites” one finds binding signal data, which are given here for 32 sequences.

The other results are listed elsewhere or left out.

This assay deals with T1, MBP-FoxP1dN (Mus musculus, UniProt P58462 326-579).
T1 sequence: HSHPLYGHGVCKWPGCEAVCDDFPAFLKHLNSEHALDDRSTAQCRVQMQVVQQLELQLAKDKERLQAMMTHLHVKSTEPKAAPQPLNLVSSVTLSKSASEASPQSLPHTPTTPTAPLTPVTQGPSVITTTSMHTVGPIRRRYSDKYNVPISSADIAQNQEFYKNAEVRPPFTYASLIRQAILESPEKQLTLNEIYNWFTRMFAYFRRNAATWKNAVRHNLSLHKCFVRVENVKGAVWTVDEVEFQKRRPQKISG
In words: PD-seq (MBP pull-down with sequencing); 20 mM Tris-HCl pH 7.5, 100 mM NaCl, 1.5 mM MgCl2, 0.4 uM protein, 0.1 uM dsDNA library, 30 min, room temperature, amylose pull-down; high values mean tight binding. The following applies: protein: recombinant; tags: His6-MBP; chain copies: 2; dsDNA, one strand shown. The procedure, abridged: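 Binding is the reads-per-million enrichment of pull-down relative to input, pooled across replicates. For this, 0.4 µM His6-MBP-tagged mouse FoxP3 or FoxP1 fragment lacking the N-terminus, made in E. coli, was incubated with 0.1 µM Klenow-filled double-stranded degenerate DNA library for 30 min at room temperature in Tris pH 7.5 buffer with NaCl and MgCl2. Complexes bound to amylose resin were washed three times before proteinase K released the DNA for PCR barcoding and Illumina sequencing.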
With “GATGATTGTTCTCCCAGCTGATGAATTTTGATTGTCGAGTAAACAAATTTTCCTAATCTTTCTGTTCAAGCGCCATCTAC”, the binding signal was 1.67 RPM ratio (pull-down/input). For “GATGATTGTTCTCCCAGCTGATGAATTACCTACATCGAGTAAACAAATTTTCCTAATCTTTCTGTTCAAGCGCCATCTAC” the value was 1.16 RPM ratio (pull-down/input). The figure for “GATGATTGTTCTCCCAGCTGATGAATTTAAACGGTCGAGTAAACAAATTTTCCTAATCTTTCTGTTCAAGCGCCATCTAC” is 0.843 RPM ratio (pull-down/input). For “GATGATTGTTCTCCCAGCTGATGAATTGTAGCGGTCGAGTAAACAAATTTTCCTAATCTTTCTGTTCAAGCGCCATCTAC” the value was 0.912 RPM ratio (pull-down/input); for “GATGATTGTTCTCCCAGCTGATGAATTGCGTTGATCGAGTAAACAAATTTTCCTAATCTTTCTGTTCAAGCGCCATCTAC”, 1.1 RPM ratio (pull-down/input); for “GATGATTGTTCTCCCAGCTGATGAATTTTTAATGTCGAGTAAACAAATTTTCCTAATCTTTCTGTTCAAGCGCCATCTAC”, 1.27 RPM ratio (pull-down/input).

“GATGATTGTTCTCCCAGCTGATGAATTCGACTGTTCGAGTAAACAAATTTTCCTAATCTTTCTGTTCAAGCGCCATCTAC”: the binding signal was 0.839 RPM ratio (pull-down/input). The figure for “GATGATTGTTCTCCCAGCTGATGAATTTACAAAGTCGAGTAAACAAATTTTCCTAATCTTTCTGTTCAAGCGCCATCTAC” is 1.43 RPM ratio (pull-down/input); for “GATGATTGTTCTCCCAGCTGATGAATTCATAGTGTCGAGTAAACAAATTTTCCTAATCTTTCTGTTCAAGCGCCATCTAC” it is 0.982 RPM ratio (pull-down/input). For “GATGATTGTTCTCCCAGCTGATGAATTTGGAATCTCGAGTAAACAAATTTTCCTAATCTTTCTGTTCAAGCGCCATCTAC” the value was 0.84 RPM ratio (pull-down/input). For “GATGATTGTTCTCCCAGCTGATGAATTGAACGGTTCGAGTAAACAAATTTTCCTAATCTTTCTGTTCAAGCGCCATCTAC” the value was 0.891 RPM ratio (pull-down/input); for “GATGATTGTTCTCCCAGCTGATGAATTTCATTTATCGAGTAAACAAATTTTCCTAATCTTTCTGTTCAAGCGCCATCTAC”, 1.14 RPM ratio (pull-down/input); for “GATGATTGTTCTCCCAGCTGATGAATTCATAGGCTCGAGTAAACAAATTTTCCTAATCTTTCTGTTCAAGCGCCATCTAC”, 0.747 RPM ratio (pull-down/input). Turning to “GATGATTGTTCTCCCAGCTGATGAATTTATGGCATCGAGTAAACAAATTTTCCTAATCTTTCTGTTCAAGCGCCATCTAC”, the binding signal was 1.2 RPM ratio (pull-down/input). For “GATGATTGTTCTCCCAGCTGATGAATTAGTCGGCTCGAGTAAACAAATTTTCCTAATCTTTCTGTTCAAGCGCCATCTAC” the value was 0.804 RPM ratio (pull-down/input). For “GATGATTGTTCTCCCAGCTGATGAATTCTGGCCATCGAGTAAACAAATTTTCCTAATCTTTCTGTTCAAGCGCCATCTAC” the value was 0.77 RPM ratio (pull-down/input). For “GATGATTGTTCTCCCAGCTGATGAATTATCTAGATCGAGTAAACAAATTTTCCTAATCTTTCTGTTCAAGCGCCATCTAC” the value was 0.863 RPM ratio (pull-down/input); for “GATGATTGTTCTCCCAGCTGATGAATTTGGTCCATCGAGTAAACAAATTTTCCTAATCTTTCTGTTCAAGCGCCATCTAC”, 0.927 RPM ratio (pull-down/input); for “GATGATTGTTCTCCCAGCTGATGAATTAGCTCTATCGAGTAAACAAATTTTCCTAATCTTTCTGTTCAAGCGCCATCTAC”, 0.887 RPM ratio (pull-down/input).

Turning to “GATGATTGTTCTCCCAGCTGATGAATTCGAGCAATCGAGTAAACAAATTTTCCTAATCTTTCTGTTCAAGCGCCATCTAC”, the binding signal was 1.04 RPM ratio (pull-down/input).

“GATGATTGTTCTCCCAGCTGATGAATTGTGCAATTCGAGTAAACAAATTTTCCTAATCTTTCTGTTCAAGCGCCATCTAC”: the binding signal is 1.24 RPM ratio (pull-down/input).

Take “GATGATTGTTCTCCCAGCTGATGAATTTTGTATATCGAGTAAACAAATTTTCCTAATCTTTCTGTTCAAGCGCCATCTAC”: the binding signal was 2.33 RPM ratio (pull-down/input). The figure for “GATGATTGTTCTCCCAGCTGATGAATTATGAGAATCGAGTAAACAAATTTTCCTAATCTTTCTGTTCAAGCGCCATCTAC” is 0.995 RPM ratio (pull-down/input); for “GATGATTGTTCTCCCAGCTGATGAATTTCGAGCGTCGAGTAAACAAATTTTCCTAATCTTTCTGTTCAAGCGCCATCTAC” it is 0.777 RPM ratio (pull-down/input).

On to “GATGATTGTTCTCCCAGCTGATGAATTGACTTCTTCGAGTAAACAAATTTTCCTAATCTTTCTGTTCAAGCGCCATCTAC”, for which the binding signal is 0.996 RPM ratio (pull-down/input).

As to “GATGATTGTTCTCCCAGCTGATGAATTGATTGTCTCGAGTAAACAAATTTTCCTAATCTTTCTGTTCAAGCGCCATCTAC”, the binding signal was 1.16 RPM ratio (pull-down/input). The figure for “GATGATTGTTCTCCCAGCTGATGAATTTATGAACTCGAGTAAACAAATTTTCCTAATCTTTCTGTTCAAGCGCCATCTAC” is 1.04 RPM ratio (pull-down/input). For “GATGATTGTTCTCCCAGCTGATGAATTTGCTACCTCGAGTAAACAAATTTTCCTAATCTTTCTGTTCAAGCGCCATCTAC” the value was 0.995 RPM ratio (pull-down/input); for “GATGATTGTTCTCCCAGCTGATGAATTATTTATGTCGAGTAAACAAATTTTCCTAATCTTTCTGTTCAAGCGCCATCTAC”, 1.83 RPM ratio (pull-down/input). With “GATGATTGTTCTCCCAGCTGATGAATTCCCCACCTCGAGTAAACAAATTTTCCTAATCTTTCTGTTCAAGCGCCATCTAC”, the binding signal was 0.815 RPM ratio (pull-down/input). Regarding “GATGATTGTTCTCCCAGCTGATGAATTTGCAACGTCGAGTAAACAAATTTTCCTAATCTTTCTGTTCAAGCGCCATCTAC”, the binding signal was 1.13 RPM ratio (pull-down/input). For “GATGATTGTTCTCCCAGCTGATGAATTGCGCTCTTCGAGTAAACAAATTTTCCTAATCTTTCTGTTCAAGCGCCATCTAC” the value was 1.07 RPM ratio (pull-down/input).
